Data reported in patent US20160159914A1 (Amgen, published 2016).

Molecular target: T1, IL-17RE-FC (Amgen) (UniProt Q8NFR9 176-451)
T1 construct: Amgen material; also called IL-17RE-FC (176-451); not shown: Fc region
T1 sequence (looked up): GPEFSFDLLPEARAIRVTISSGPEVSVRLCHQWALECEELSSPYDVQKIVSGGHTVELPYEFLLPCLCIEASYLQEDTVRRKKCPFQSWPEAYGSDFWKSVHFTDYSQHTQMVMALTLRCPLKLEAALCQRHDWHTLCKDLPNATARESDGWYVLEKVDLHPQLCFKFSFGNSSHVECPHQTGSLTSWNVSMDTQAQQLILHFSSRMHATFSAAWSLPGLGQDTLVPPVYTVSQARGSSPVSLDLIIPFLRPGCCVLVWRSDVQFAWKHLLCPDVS
Experiment: AlphaScreen, His-tagged ligand with Fc-tagged receptor (nickel chelate donor beads, Protein A acceptor beads)
Description: IL-17 family ligands and receptors were tested in pair wise combinations by Alphalisa™ in Perkin-Elmer's immunoassay buffer. Ligands were tagged with a hexa-histidine tag and receptors were tagged with a FC region.
Reagents: OptiPlate-384™, White Opaque 384-well MicroPlate; Perkin Elmer; Catalog #6007299; AlphaScreen™ Protein A Acceptor beads, 5 mg; Perkin Elmer; Catalog #6760137M; AlphaScreen® Nickel Chelate Donor beads 5 mg; Perkin Elmer; Catalog# AS101M; IL-17C-His-Avi (Amgen); IL-17A-His (Amgen); IL-17RE-FC (Amgen); and IL-17RA-FC (R&D Systems) Catalog#177-IR.
AlphaScreen™ protocol: Ligand and receptor dilutions were made in Perkin-Elmer ImmunoAssay Buffer. IL-17 ligands were diluted to a concentration range of 0.5 to 50 nM. IL-17 receptors were diluted to a concentration range of 0 to 300 nM. Donor and acceptor beads were held constant at 20 ug/mL. 2.5 ul of ligand was added to the 384 well OptiPlate™. 2.5 ul of receptor was added to the 384 well OptiPlate™. 5 uL of donor and acceptor beads were added to the 384 well OptiPlate™. The plate was sealed with adhesive according to manufacturer's protocol. The plate was incubated at room temperature for 3 hours and protected from ambient light. The plate was read using the 384 AlphaScreen Protocol on Envision Plate Reader (Perkin Elmer).

- binding result: no binding
B1: IL-17A-His (Amgen) (ligand)
chain: not shown
notes: not shown: hexa-histidine tag
